Consider 94 sequences from the supplement of paper PMC3334620.

In all, about 33,000 sequences were measured (“E-score (-0.5 to 0.5)”: median about -0.021, highest 2% from about 0.32 on). Some of the results follow.

The target of this assay is T1, Zap1 (UniProt P47043).
T1 sequence: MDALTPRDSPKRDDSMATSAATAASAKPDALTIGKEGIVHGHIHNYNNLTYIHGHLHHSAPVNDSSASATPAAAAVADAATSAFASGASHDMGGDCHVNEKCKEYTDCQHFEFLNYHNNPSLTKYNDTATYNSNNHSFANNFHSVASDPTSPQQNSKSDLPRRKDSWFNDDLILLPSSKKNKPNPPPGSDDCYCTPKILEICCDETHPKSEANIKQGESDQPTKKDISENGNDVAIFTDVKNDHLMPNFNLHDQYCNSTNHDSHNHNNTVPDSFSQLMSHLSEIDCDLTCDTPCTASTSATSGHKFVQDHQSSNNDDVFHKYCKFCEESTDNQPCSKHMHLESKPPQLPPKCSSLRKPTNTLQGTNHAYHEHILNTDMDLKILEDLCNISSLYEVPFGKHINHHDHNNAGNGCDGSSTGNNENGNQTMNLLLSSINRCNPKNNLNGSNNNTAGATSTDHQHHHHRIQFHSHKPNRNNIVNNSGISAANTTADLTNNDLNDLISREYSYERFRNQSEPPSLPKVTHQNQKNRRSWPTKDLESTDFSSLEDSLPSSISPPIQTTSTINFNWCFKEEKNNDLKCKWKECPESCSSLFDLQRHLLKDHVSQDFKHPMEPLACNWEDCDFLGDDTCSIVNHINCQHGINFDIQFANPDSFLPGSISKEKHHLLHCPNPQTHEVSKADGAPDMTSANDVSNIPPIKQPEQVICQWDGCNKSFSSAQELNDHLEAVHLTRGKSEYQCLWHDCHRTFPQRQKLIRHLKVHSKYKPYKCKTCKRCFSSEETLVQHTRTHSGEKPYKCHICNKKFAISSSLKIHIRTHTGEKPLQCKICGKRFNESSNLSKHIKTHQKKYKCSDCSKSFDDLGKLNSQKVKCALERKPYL
The assay is described as follows: PBM E-score (8-mer binding enrichment) (E-score (-0.5 to 0.5)); higher = stronger / more preferred TF binding; most listed sequences are background and not binding sites. To be noted: protein concentration: 200 nM; construct: GST-full length. The protocol: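 Universal 'all 10-mer' protein binding microarrays (Agilent AMADID 015681) probed with GST-tagged S. cerevisiae TFs (full-length or DBD) made by in vitro transcription/translation (PURExpress), about 100-200 nM. Bound TF was detected with fluorescent anti-GST. Each ungapped 8-mer (which stands for itself and its reverse complement) is scored by the PBM enrichment score (E-score), a modified Wilcoxon-Mann-Whitney statistic from -0.5 to +0.5, computed with the Universal PBM Analysis Suite. Scale: above 0.35 generally sequence-specific binding.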
In the case of AAGATAAT, the “PBM E-score” value was found to be 0.142. On to CCGCGGTC, for which the “PBM E-score” value stood at 0.0304. Take GCGGTCAA: the “PBM E-score” value turned out to be 0.116.

For the sequence CATATTTA, the “PBM E-score” value was 0.122. As to GCCCTAGC, the “PBM E-score” value is -0.148. As to TCACGTCA, the “PBM E-score” value turned out to be 0.104. On to TTTGCAAA, for which the “PBM E-score” value was 0.232.

Turning to GTCTAGCA, the “PBM E-score” value is -0.139. With AGTGGGGC the figure was -0.27; with GAAGTGCA, -0.0999; with TAAAGTGA, 0.175. For the sequence ACGGTAAA, the “PBM E-score” value is -0.0274. As for ACTCCAAG, the “PBM E-score” value was -0.021. As for GAGTTGCC, the “PBM E-score” value is -0.198. For ACCCTTGA, the “PBM E-score” value was 0.383.

With ACAATGCG, the “PBM E-score” value was -0.0835. Next, ACAGTGTA: 0.0586; CATCTCGC: -0.291; AGCTAGTC: -0.241. For AGTTGCGA, the “PBM E-score” value amounted to 0.16. For the sequence AACTGTCA, the “PBM E-score” value was -0.00667. On to ACCTGCAG, for which the “PBM E-score” value turned out to be 0.0978. With CCCTCGAG, the “PBM E-score” value amounted to 0.159. With AAGACGTC the figure was -0.0621; with CCTATGAG, 0.105. With AGAGCGAC, the “PBM E-score” value was -0.0982. For the sequence AGATGACG, the “PBM E-score” value was -0.236.

AAAAACGC: the “PBM E-score” value came out at 0.0461. As to GGTGCTCA, the “PBM E-score” value worked out at 0.069. For AATCTAGA, the “PBM E-score” value was 0.0363. As for CGGACCGC, the “PBM E-score” value is -0.0697. For AGAAGCAC, the “PBM E-score” value was -0.185. With ATCTAACG the figure was -0.0741; with AGTAGGAC, -0.22.

For the sequence TGCCACCA, the “PBM E-score” value was -0.19. Turning to ACTGATAG, the “PBM E-score” value was -0.0352. For the sequence ACGTTAAG, the “PBM E-score” value was -0.0481.

As for ACCTAAGC, the “PBM E-score” value is 0.0446. In the case of CGGATACC, the “PBM E-score” value was 0.255.

Take AGATCAGA: the “PBM E-score” value is -0.0903. Turning to CGTTCTCC, the “PBM E-score” value is -0.14. Take ACGTCCAC: the “PBM E-score” value was -0.184.

With GAACCAAA, the “PBM E-score” value worked out at 0.186. As to AGCATAAA, the “PBM E-score” value was determined as 0.083. With ACCGAAAT, the “PBM E-score” value came out at 0.149. In the case of AGCCACCC, the “PBM E-score” value was -0.108.

Consider AAAGGTAT, for which the “PBM E-score” value is 0.293. Next, AGCAGTCG: -0.132; GCTGCGCC: -0.345; CAACTAAG: -0.00117. As to AGCCCTTC, the “PBM E-score” value was -0.134.

On to TTACGTAA, for which the “PBM E-score” value is 0.128. For CAGCTGCA, the “PBM E-score” value was -0.292. Consider CAAGTCTC, for which the “PBM E-score” value is -0.2. As for AGCCGACT, the “PBM E-score” value is -0.213. Take ACAAACAG: the “PBM E-score” value worked out at 0.215. For TCTGGGCA, the “PBM E-score” value was -0.103.

On to TGAAGACA, for which the “PBM E-score” value was -0.00651.

Turning to GATAAGAA, the “PBM E-score” value stood at 0.178. Regarding CCCGGCCA, the “PBM E-score” value is -0.0437. As to CGCGCCGA, the “PBM E-score” value is -0.0722. On to CGAGCATC, for which the “PBM E-score” value was -0.207. On to AGCCGTAC, for which the “PBM E-score” value is -0.14. Turning to AGAACGAA, the “PBM E-score” value turned out to be 0.0755. Turning to CGATAGTA, the “PBM E-score” value was -0.123. Consider CTACATGA, for which the “PBM E-score” value was -0.102. With CTGTTTGC the figure was -0.00815.

Regarding AGGCCACG, the “PBM E-score” value turned out to be 0.148. For the sequence TAGCGCGA, the “PBM E-score” value is 0.18.

On to CGATTGAA, for which the “PBM E-score” value was -0.154. As to AGAAGGAA, the “PBM E-score” value was -0.212. Next, AGATAGCA: 0.0811; ACGTGTTA: -0.0246. For AGCGTTAA, the “PBM E-score” value came out at 0.054. Consider CTAGGCGA, for which the “PBM E-score” value was -0.131. Regarding GACTTTAC, the “PBM E-score” value was -0.0251. Consider ATTGTTCA, for which the “PBM E-score” value came out at 0.0541. Next, ACGGGAAC: 0.037. Regarding GAAGTGTC, the “PBM E-score” value is -0.208. For ACTGAGTG, the “PBM E-score” value is -0.152.

As to AGGTTTCA, the “PBM E-score” value turned out to be 0.222. In the case of ACTAAGCA, the “PBM E-score” value was -0.191.

Take CCTGCTGC: the “PBM E-score” value came to 0.0023. As for ATCAGAGA, the “PBM E-score” value was -0.123. Turning to CATTCTAA, the “PBM E-score” value worked out at 0.173.

AATCACTC: the “PBM E-score” value is -0.146. Consider ACGCACCA, for which the “PBM E-score” value was determined as 0.0673. With TACTATCA the figure was 0.0831; with ACCCGCGT, 0.103.

Regarding GGGGCAGA, the “PBM E-score” value is -0.272. Regarding CATATACC, the “PBM E-score” value is -0.0793. Turning to GTTTCGCA, the “PBM E-score” value was -0.193. For the sequence ACTCTGTC, the “PBM E-score” value was -0.169.

On to ATACTTTC, for which the “PBM E-score” value stood at 0.0164.
